According to the supplement of paper PMC4604168 (melanoma cell lines):
Some of the results follow. Many values rest on one well or one pass, so single values are uncertain.

test system: WM1716; assay: cell count relative to DMSO control; melanoma cells; higher = more viable cells; settings: library dose: low library concentration; 72 h
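Also: cell number obtained by counting DAPI-stained nuclei in high-throughput microscope images with image analysis software, screen run in 1,536-well plates.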

| Compound | cell count [%] |
| --- | --- |
| CC[C@]1(O)C[C@H]2CN(CCc3c([nH]c4ccccc34)[C@@](C(=O)OC)(c3cc4c(cc3OC)N(C=O)[C@H]3[C@@](O)(C(=O)OC)[C@H](OC(C)=O)[C@]5(CC)C=CCN6CC[C@]43[C@@H]65)C2)C1 [vincristine] + CS(=O)(=O)c1ccc(C(=O)Nc2ccc(Cl)c(-c3ccccn3)c2)c(Cl)c1 [vismodegib] (first compound 0.0001 µM, partner dose 1 µM) | 46 |
| CC[C@]1(O)C[C@H]2CN(CCc3c([nH]c4ccccc34)[C@@](C(=O)OC)(c3cc4c(cc3OC)N(C=O)[C@H]3[C@@](O)(C(=O)OC)[C@H](OC(C)=O)[C@]5(CC)C=CCN6CC[C@]43[C@@H]65)C2)C1 [vincristine] + CN(NC(=O)CC(=O)NN(C)C(=S)c1ccccc1)C(=S)c1ccccc1 [STA4783] (first compound 0.0001 µM, partner dose 0.006 µM) | 36.6 |
| N#CC[C@H](C1CCCC1)n1cc(-c2ncnc3[nH]ccc23)cn1 [ruxolitinib] + O=C(CCCCCCC(=O)Nc1ccccc1)NO [vorinostat] (first compound 1 µM, partner dose 0.08 µM) | 125 |
| CC[C@]1(O)C[C@H]2CN(CCc3c([nH]c4ccccc34)[C@@](C(=O)OC)(c3cc4c(cc3OC)N(C=O)[C@H]3[C@@](O)(C(=O)OC)[C@H](OC(C)=O)[C@]5(CC)C=CCN6CC[C@]43[C@@H]65)C2)C1 [vincristine] + Cc1cn(-c2cc(NC(=O)c3ccc(C)c(Nc4nccc(-c5cccnc5)n4)c3)cc(C(F)(F)F)c2)cn1 [nilotinib] (first compound 0.0001 µM, partner dose 0.2 µM) | 39.8 |
| N#CC[C@H](C1CCCC1)n1cc(-c2ncnc3[nH]ccc23)cn1 [ruxolitinib] + COc1cc([C@@H]2c3cc4c(cc3[C@@H](O[C@@H]3O[C@@H]5CO[C@@H](C)O[C@H]5[C@H](O)[C@H]3O)[C@H]3COC(=O)[C@H]23)OCO4)cc(OC)c1O [etoposide] (first compound 1 µM, partner dose 0.02 µM) | 97.5 |
| CC[C@]1(O)C[C@H]2CN(CCc3c([nH]c4ccccc34)[C@@](C(=O)OC)(c3cc4c(cc3OC)N(C=O)[C@H]3[C@@](O)(C(=O)OC)[C@H](OC(C)=O)[C@]5(CC)C=CCN6CC[C@]43[C@@H]65)C2)C1 [vincristine] + Cn1sc(=O)n(Cc2ccccc2)c1=O [TDZD-8] (first compound 0.0001 µM, partner dose 0.4 µM) | 48.7 |
| N#CC[C@H](C1CCCC1)n1cc(-c2ncnc3[nH]ccc23)cn1 [ruxolitinib] + Oc1cc(-c2nc(-c3ccccc3)[nH]c2-c2ccncc2)ccc1Cl [L779450] (first compound 1 µM, partner dose 0.2 µM) | 115 |
| CC[C@]1(O)C[C@H]2CN(CCc3c([nH]c4ccccc34)[C@@](C(=O)OC)(c3cc4c(cc3OC)N(C=O)[C@H]3[C@@](O)(C(=O)OC)[C@H](OC(C)=O)[C@]5(CC)C=CCN6CC[C@]43[C@@H]65)C2)C1 [vincristine] + C[C@@H](Oc1cc(-c2cnn(C3CCNCC3)c2)cnc1N)c1c(Cl)ccc(F)c1Cl [Crizotinib] (first compound 0.0001 µM, partner dose 0.2 µM) | 46.6 |
| CC[C@]1(O)C[C@H]2CN(CCc3c([nH]c4ccccc34)[C@@](C(=O)OC)(c3cc4c(cc3OC)N(C=O)[C@H]3[C@@](O)(C(=O)OC)[C@H](OC(C)=O)[C@]5(CC)C=CCN6CC[C@]43[C@@H]65)C2)C1 [vincristine] + CCN(CC)CCNC(=O)c1c(C)[nH]c(/C=C2\C(=O)Nc3ccc(F)cc32)c1C [sunitinib] (first compound 0.0001 µM, partner dose 0.4 µM) | 75.9 |
| Cc1cc(Nc2cc(N3CCN(C)CC3)nc(Sc3ccc(NC(=O)C4CC4)cc3)n2)n[nH]1 [Tozasertib] + C=CCn1c(=O)c2cnc(Nc3ccc(N4CCN(C)CC4)cc3)nc2n1-c1cccc(C(C)(C)O)n1 [MK1775] (first compound 0.006 µM, partner dose 0.02 µM) | 87.2 |
| CC[C@]1(O)C[C@H]2CN(CCc3c([nH]c4ccccc34)[C@@](C(=O)OC)(c3cc4c(cc3OC)N(C=O)[C@H]3[C@@](O)(C(=O)OC)[C@H](OC(C)=O)[C@]5(CC)C=CCN6CC[C@]43[C@@H]65)C2)C1 [vincristine] + CCN(CC)CCCCNc1ncc2cc(-c3cc(OC)cc(OC)c3)c(NC(=O)NC(C)(C)C)nc2n1 [PD173074] (first compound 0.0001 µM, partner dose 0.1 µM) | 53.4 |
| N#CC[C@H](C1CCCC1)n1cc(-c2ncnc3[nH]ccc23)cn1 [ruxolitinib] + CCN(CC)CCNC(=O)c1c(C)[nH]c(/C=C2\C(=O)Nc3ccc(F)cc32)c1C [sunitinib] (first compound 1 µM, partner dose 0.4 µM) | 132 |
| Cc1cc(Nc2cc(N3CCN(C)CC3)nc(Sc3ccc(NC(=O)C4CC4)cc3)n2)n[nH]1 [Tozasertib] + Cn1sc(=O)n(Cc2ccccc2)c1=O [TDZD-8] (first compound 0.006 µM, partner dose 0.4 µM) | 103 |
| N#CC[C@H](C1CCCC1)n1cc(-c2ncnc3[nH]ccc23)cn1 [ruxolitinib] + CC[C@]1(O)C[C@H]2CN(CCc3c([nH]c4ccccc34)[C@@](C(=O)OC)(c3cc4c(cc3OC)N(C=O)[C@H]3[C@@](O)(C(=O)OC)[C@H](OC(C)=O)[C@]5(CC)C=CCN6CC[C@]43[C@@H]65)C2)C1 [vincristine] (first compound 1 µM, partner dose 0.0001 µM) | 67.8 |
| CC[C@]1(O)C[C@H]2CN(CCc3c([nH]c4ccccc34)[C@@](C(=O)OC)(c3cc4c(cc3OC)N(C=O)[C@H]3[C@@](O)(C(=O)OC)[C@H](OC(C)=O)[C@]5(CC)C=CCN6CC[C@]43[C@@H]65)C2)C1 [vincristine] + OCc1c[nH]c2ccccc12 [Indole-3-carbinol] (first compound 0.0001 µM, partner dose 0.8 µM) | 39.9 |
| Cc1cc(Nc2cc(N3CCN(C)CC3)nc(Sc3ccc(NC(=O)C4CC4)cc3)n2)n[nH]1 [Tozasertib] + Cc1nc(Nc2ncc(C(=O)Nc3c(C)cccc3Cl)s2)cc(N2CCN(CCO)CC2)n1 [dasatanib] (first compound 0.006 µM, partner dose 0.004 µM) | 77.9 |
| N#CC[C@H](C1CCCC1)n1cc(-c2ncnc3[nH]ccc23)cn1 [ruxolitinib] + O=C(O)[C@@H]1[O][Sb](=[O])([O][Sb]2(=[O])[O][C@H]([C@H](O)CO)[C@H](O)[C@H](C(=O)O)[O]2)[O][C@H]([C@H](O)CO)[C@@H]1O [stibogluconate] (first compound 1 µM, partner dose 2 µM) | 92.8 |
| CC[C@]1(O)C[C@H]2CN(CCc3c([nH]c4ccccc34)[C@@](C(=O)OC)(c3cc4c(cc3OC)N(C=O)[C@H]3[C@@](O)(C(=O)OC)[C@H](OC(C)=O)[C@]5(CC)C=CCN6CC[C@]43[C@@H]65)C2)C1 [vincristine] + O=C(/C=C/c1cccnc1)NCCCCC1CCN(C(=O)c2ccccc2)CC1 [FK866] (first compound 0.0001 µM, partner dose 0.01 µM) | 47.5 |
| N#CC[C@H](C1CCCC1)n1cc(-c2ncnc3[nH]ccc23)cn1 [ruxolitinib] + COc1ccc(-c2ccc3c(N4CCOCC4)nc(N4C[C@@H](C)O[C@@H](C)C4)nc3n2)cc1CO [KU0063794] (first compound 1 µM, partner dose 0.02 µM) | 91.1 |
| CC[C@]1(O)C[C@H]2CN(CCc3c([nH]c4ccccc34)[C@@](C(=O)OC)(c3cc4c(cc3OC)N(C=O)[C@H]3[C@@](O)(C(=O)OC)[C@H](OC(C)=O)[C@]5(CC)C=CCN6CC[C@]43[C@@H]65)C2)C1 [vincristine] + Nc1ccn([C@@H]2O[C@H](CO)[C@@H](O)C2(F)F)c(=O)n1 [gemcitabine] (first compound 0.0001 µM, partner dose 0.0004 µM) | 48.8 |
| Cc1cc(Nc2cc(N3CCN(C)CC3)nc(Sc3ccc(NC(=O)C4CC4)cc3)n2)n[nH]1 [Tozasertib] + O=S(=O)(c1ccccc1)N(CC(F)(F)F)c1ccc(C(O)(C(F)(F)F)C(F)(F)F)cc1 [T0901317] (first compound 0.006 µM, partner dose 1.4 µM) | 82.4 |
| CC[C@]1(O)C[C@H]2CN(CCc3c([nH]c4ccccc34)[C@@](C(=O)OC)(c3cc4c(cc3OC)N(C=O)[C@H]3[C@@](O)(C(=O)OC)[C@H](OC(C)=O)[C@]5(CC)C=CCN6CC[C@]43[C@@H]65)C2)C1 [vincristine] + COc1cc2c(Oc3ccc4[nH]c(C)cc4c3F)ncnc2cc1OCCCN1CCCC1 [cediranib] (first compound 0.0001 µM, partner dose 0.4 µM) | 58 |
| CC[C@]1(O)C[C@H]2CN(CCc3c([nH]c4ccccc34)[C@@](C(=O)OC)(c3cc4c(cc3OC)N(C=O)[C@H]3[C@@](O)(C(=O)OC)[C@H](OC(C)=O)[C@]5(CC)C=CCN6CC[C@]43[C@@H]65)C2)C1 [vincristine] + CCCCCCCCc1ccc(CCC(N)(CO)CO)cc1 [fingolimod] (first compound 0.0001 µM, partner dose 2 µM) | 43.7 |
